From PubChem BioAssay (NCATS)
“And” between values parts separate entries of the source, which are not always exact repeats. Identical values can stand only once. This list was built around the results that the source calls inconclusive (neither active nor inactive); the mix of calls is not that of the screen. For some assays here: A potency beside an inconclusive call is a rough fit, not a confirmed value. The source made the active and inactive calls. Calls come from the whole dose curve; as a rule, active = well fitted curve in the direction sought with a large enough effect; inconclusive = small, poorly fitted or top-dose-only effect, or another doubt; inactive = no such curve, though single readings can be large; an effect the other way counts as inactive or inconclusive.

Columns and labels:
[1] = tested on: CRL-7250; test: Cytotoxic Profiling of Annotated Libraries Using Quantitative High-Throughput Screening (AID 1296008); conditions: Five cell lines viability, CellTiter-Glo ATP luminescence, 48-72 h; max response: stronger effect = lower value; note: nearly all actives have a fitted effect of over 60% in size; for max response: % is set by controls: 0 for no effect and ±100 for the full control effect
Procedure, shortened: (§1)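 Cells exposed to compounds for 48 or 72 hr at 37 degrees Celsius. Viability read as ATP-coupled luminescence with CellTiter-Glo after 10 min at room temperature.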

[2] = tested on: HEK293; test: as above; conditions: Five cell lines viability, CellTiter-Glo ATP luminescence, 48-72 h; max response: stronger effect = lower value
Procedure, shortened: as §1

[3] = tested on: HaCat; test: as above; conditions: Five cell lines viability, CellTiter-Glo ATP luminescence, 48-72 h; max response: stronger effect = lower value
Procedure, shortened: as §1

[4] = tested on: KB-3-1; test: as above; conditions: Five cell lines viability, CellTiter-Glo ATP luminescence, 48-72 h; max response: stronger effect = lower value
Procedure, shortened: as §1

[5] = tested on: NIH3T3; test: as above; conditions: Five cell lines viability, CellTiter-Glo ATP luminescence, 48-72 h; max response: stronger effect = lower value
Procedure, shortened: as §1

[6] = tested on: MCC-26; test: qHTS assay to identify novel small-molecules to repurpose for Merkel cell carcinoma treatment (AID 1296009); conditions: MCC and control cell lines, CellTiter-Glo viability, 72 h; series mostly up to 46 µM; note: nearly all actives have a fitted effect of over 60% in size
Procedure, shortened: (§2)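 Dose-response viability screen; 72 hr exposure at 37 degree celsius; CellTiter-Glo added, 10 min room temperature, luminescence read; RLUs scaled between no-cell and DMSO wells.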

[7] = tested on: MKL-1; test: as above; conditions: MCC and control cell lines, CellTiter-Glo viability, 72 h; series mostly up to 46 µM
Procedure, shortened: as §2

[8] = tested on: UISO; test: as above; conditions: MCC and control cell lines, CellTiter-Glo viability, 72 h; series mostly up to 46 µM
Procedure, shortened: as §2

[9] = tested on: WaGa; test: as above; conditions: MCC and control cell lines, CellTiter-Glo viability, 72 h; series mostly up to 46 µM
Procedure, shortened: as §2

[10] = tested on: astro; test: Drug repurposing screens with cells derived from glioblastoma tumor samples (AID 1345199); conditions: viability, ATP luminescence, 48 h; activity, negative = cell killing: at 45.9 µM (top of the series); note: nearly all actives have a fitted effect of over 40% in size
Procedure, shortened: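 Primary testing used CD133+ neurospheres from four GBM patients, seven concentrations, 48 h exposure and ATP-based viability; confirmation added three slower-growing patient lines.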

[11] = tested on: C33A; test: Primary qHTS to identify gynecologic anti-cancer compounds using libraries of approved drugs and bioactive compounds (AID 1345084); conditions: Gynecologic cancer cell panel viability, ATPlite luminescence, 48 h; series mostly up to 57.5 µM; note: nearly all actives have a fitted effect of over 55% in size
Procedure, shortened: (§3)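 Measured: luminescence after ATPlite addition (15 min, RT). Exposure: 48 h, 37 C, 5% CO2.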

[12] = tested on: CAOV3; test: as above; conditions: Gynecologic cancer cell panel viability, ATPlite luminescence, 48 h; series mostly up to 57.5 µM
Procedure, shortened: as §3

[13] = tested on: CASKI; test: as above; conditions: Gynecologic cancer cell panel viability, ATPlite luminescence, 48 h; activity change, negative = cytotoxicity: at 57.5 µM (top of the series)
Procedure, shortened: as §3

[14] = tested on: Es-2; test: as above; conditions: Gynecologic cancer cell panel viability, ATPlite luminescence, 48 h; series mostly up to 57.5 µM
Procedure, shortened: as §3

[15] = tested on: W2; test: qHTS profiling for inhibitors of Plasmodium falciparum proliferation (AID 504749); note: nearly all actives have a fitted effect of over 60% in size; conditions: P. falciparum in erythrocytes, SYBR Green DNA, 72 h; series mostly up to 28.7 µM
Procedure, shortened: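 Each compound contacts P. falciparum-infected red blood cells for 72 h at 37 C; lysis buffer (Tris, EDTA, saponin, Triton X, SYBR Green I) is added and fluorescence measured next morning; values normalized to controls.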

[16] = tested on: MCC-13; test: qHTS assay to identify novel small-molecules to repurpose for Merkel cell carcinoma treatment (AID 1296009); conditions: MCC and control cell lines, CellTiter-Glo viability, 72 h; series mostly up to 46 µM; note: nearly all actives have a fitted effect of over 60% in size
Procedure, shortened: as §2

[17] = tested on: MKL-2; test: as above; conditions: MCC and control cell lines, CellTiter-Glo viability, 72 h; series mostly up to 46 µM
Procedure, shortened: as §2

[18] = tested on: HeLa; test: Primary qHTS to identify gynecologic anti-cancer compounds using libraries of approved drugs and bioactive compounds (AID 1345084); conditions: Gynecologic cancer cell panel viability, ATPlite luminescence, 48 h; series mostly up to 57.5 µM; note: nearly all actives have a fitted effect of over 55% in size
Procedure, shortened: as §3
Potency is the fitted concentration of half-maximal effect; tags give direction and shape of the fitted curve.

Row | SMILES | Potency [1] | Potency [2] | Potency [3] | Potency [4] | Potency [5] | Potency [6] | Potency [7] | Potency [8] | Potency [9] | Potency [10] | Potency [11] | Potency [12] | Potency [13] | Potency [14] | Potency [15] | max response [3] | Potency [16] | Potency [17] | Potency [18]
1 | CC[C@]1(O)C[C@@H]2CN(CCc3c([nH]c4ccccc34)[C@@](C(=O)OC)(c3cc4c(cc3OC)N(C)[C@H]3[C@@](O)(C(=O)OC)[C@H](OC(C)=O)[C@]5(CC)C=CCN6CC[C@]43[C@@H]65)C2)C1 | inconclusive: 0.0119 µM [inhibitor, full curve, poor fit] | active: 66.8 nM and active: 84.1 nM and active: 46.1 nM | inconclusive: 15 µM [inhibitor, partial curve, poor fit] | inconclusive: 0.82 µM [inhibitor, full curve] | inconclusive: 237 nM [inhibitor, full curve] and inconclusive: 291 nM [inhibitor, full curve] | inconclusive: 53.1 nM [inhibitor, full curve] and inconclusive: 596 nM [inhibitor, full curve] | active: 75 nM and active: 168 nM | inconclusive: 26.6 nM [inhibitor, full curve] and active: 237 nM | active: 26.6 nM and active: 75 nM | inconclusive: 282 nM [inhibitor, full curve] and inconclusive: 126 nM [inhibitor, full curve] | inconclusive: 794 nM [cytotoxic, full curve, poor fit] and active: 1.58 µM | inconclusive: 22.4 µM [cytotoxic, partial curve, poor fit] and inconclusive: 15.8 µM [cytotoxic, partial curve, poor fit] | inconclusive: 1.26 µM [cytotoxic, partial curve, poor fit] and inconclusive: 1.41 µM [cytotoxic, full curve, poor fit] and inconclusive: 794 nM [cytotoxic, full curve, poor fit] | active: 1.12 µM and active: 708 nM and active: 794 nM |  |  |  |  | 
2 | Oc1ccc(Cl)cc1Sc1cc(Cl)ccc1O | inconclusive: 23.7 µM [inhibitor, single point] | inconclusive: 29.9 µM [inhibitor, single point] |  | inconclusive: 23.1 µM [inhibitor, single point] |  |  |  |  | active: 21.1 µM | active: 7.94 µM | inconclusive: 22.4 µM [cytotoxic, partial curve, poor fit] |  |  | inconclusive: 15.8 µM [cytotoxic, partial curve, poor fit] | inconclusive: 13.5 µM [inhibitor, single point] | inactive: 2% | inconclusive: 18.8 µM [inhibitor, single point] | inconclusive: 11.9 µM [inhibitor, partial curve, poor fit] | inconclusive: 25.1 µM [cytotoxic, single point]
